The source of these data is ChEMBL document CHEMBL4513135, “CO-ADD screening of IQOG CSIS (Spain) compounds”.

Molecules are shown by their SMILES. Several values for one entry are separate records, joined by “and”; a condition that tells them apart may be missing. Identical values can stand only once. Some of the results follow. Results with a measured potency or affinity are listed apart.

The subject of this test is Pseudomonas aeruginosa. The conditions noted are these: Concentration 32 ug.mL-1, ASSAY_TEST Inhibition of Bacterial Growth, detection method Absorption (OD600), MEDIA CAMHB, plate type 384well, NBS, CORNING #3640, time 18 hr.

`Cl.ClCCN1CCCCC1`: the Inhibition came to 14%.

Regarding `Nc1c2c(nc3c1C(c1ccccc1)CC(=O)N3)CCCC2` (centres undefined), the Inhibition was 28.15%. Same read-out and setting: as for `N#CCC(=O)c1ccccc1`, the figure is 13.15%; as for `C#CCN1CCc2nc3nc(Cl)c(C#N)cc3c(N)c2C1`, 11.93%; as for `CNCc1cn(C)c2ccc(OC)cc12.Cl`, 37.31%. Regarding `CN1CC=C(c2cccn2C)CC1`, the Inhibition is 7.54%. Take `N#CC(C#N)=Cc1ccc(Cl)cc1`: the Inhibition came out at 29.89%. Same read-out and setting: as for `NNCCCc1c[nH]c2ccccc12.O=C(O)/C=C/C(=O)O`, the figure is 33.03%; as for `CCOC(=O)C1=C(C)NC(=O)CC1c1ccccc1` (centres undefined), 11.3%.

For `Cc1nc(N)c(C#N)cc1C(=O)O`, the Inhibition was -2.81%. As for `NNC(=O)c1cn(Cc2ccccc2)c2ccccc12`, the Inhibition is 26.56%. On the same count and under the same terms, as for `CCOC(=O)C1=C(OC)OC(=O)CC1c1ccccc1` (centres undefined), the figure is 11.78%; as for `Cc1ccc(S(=O)(=O)N2[C@H]3CC[C@@H]2CC3)cc1`, 21.31%. Consider `CN1CC=C(c2cccn2C)CC1.Cl`, for which the Inhibition came to 11.8%. On the same count and under the same terms, as for `CC1CC(=O)Nc2nc3c(c(N)c21)CCCC3` (centres undefined), the figure is 37.97%; as for `N#Cc1cc(C#N)c(N2C3CCC2CC3)nc1N`, -13.77%; as for `Cc1ccc(C=C(C#N)C#N)cc1`, 19.72%. Same read-out and setting: the figure for `Cc1ccccc1C=C(C#N)C#N` is 10.15%; for `CCOC(=O)C1=C(C)OC(=O)CC1c1ccccc1` (centres undefined) it is 18.81%. As for `[N-]=[N+]=NCC(=O)c1ccc(Br)cc1`, the Inhibition is 20.32%. Still for that read-out and setting: the figure for `O=C(N1[C@H]2CC[C@@H]1C(c1nnn[nH]1)C2)C(F)(F)F` (some centres undefined) is 38.45%; for `O=C(CBr)NCc1ccccc1` it is 30.11%.

As to `OCC(Cc1cnc[nH]1)NCc1ccccc1` (centres undefined), the Inhibition came to 33.69%. The same measure, in the same setting: the figure for `C#CCN1CCc2nc3ncccc3c(N)c2C1.Cl` is 18.09%. As to `CCOC(=O)c1cn(Cc2ccccc2)c2ccccc12`, the Inhibition is 26.02%. The same measure, in the same setting: the figure for `CCOc1nc2nc(C)c(C(=O)O)cc2c(-c2ccccc2)c1C#N` is 20.21%; for `CN(C)C(=O)Oc1ccc(CCl)c2cccnc12` it is 31.55%. Same read-out and setting: the figure for `COc1cc(C2C(C#N)=C(N)Oc3c2ccc2ccccc32)cc(OC)c1OC` (centres undefined) is 16.26%; for `C#CCN(C)Cc1cc2cc(OCc3ccc(OC(=O)N(C)C)c4ncccc34)ccc2n1C` it is 5.82%. On to `C#CCN1CCc2nc(N)c(C#N)c(-c3ccccc3)c2C1`, for which the Inhibition (32 ug/mL) is 1.68% and 1.66%. For the molecule `NNC(=O)c1cccnc1` [NICOTINIC ACID HYDRAZIDE], the Inhibition was 18.01%. Same read-out and setting: as for `C#CCN1CCc2nc3nc(OC)c(C#N)cc3c(N)c2C1`, the figure is 27.74%; as for `CCOC(=O)c1cc2cc(OC(=O)NC3CCN(Cc4ccccc4)CC3)ccc2[nH]1`, 12.49%; as for `Nc1c2c(nc3ccccc13)CCN(Cc1ccccc1)C2`, 8.84%. The same measure, in the same setting: as for `C#CCN(C)Cc1cc2cc(OC(=O)N(C)C)ccc2n1C`, the figure is -0.33%. Still for that read-out and setting: as for `Cl.ClCCN1CCCC1`, the figure is 9.27%. Regarding `COc1ccc(C=C(C#N)C#N)cc1OC`, the Inhibition was found to be 21.06%.

`C#CCN(C)Cc1cc2cc(OCCCC3CCN(Cc4ccc(OC(=O)N(C)C)c5ncccc45)CC3)ccc2n1C`: the Inhibition was found to be 9.7%. Still for that read-out and setting: the figure for `COc1ccc2c(c1)cc(C[N+](C)(C)C)n2C.[I-]` is 43.59%.

One may read the Inhibition as the change of the read-out against control, counted positive when it falls.
